Among the data in the RNAGym collection of RNA variant scans (doi:10.7554/elife.90254) are self-cleavage values, retold here.

To fix the notation:
B1: LINE1-mini (parent)
chain: GGCAGAGCUCAACACAGCGUGGCAAAGUGGCUGUGGCUAGACUGCC

The source gives no read counts; variants with many changes may rest on few reads.

This data set covers variants of B1. The experiment in a line: self-cleavage, relative activity (ratio to wild type); higher = more cleavage; in vitro, sequencing; the parent is a self-cleaving ribozyme.
With GGCAGAGCGCAACACAACGUGGCAAAGUGGCUGUGGGUAAACUGCC [U9G G17A C37G G40A], the self-cleavage was determined as 0.04.

On to GGCAGAGCGCAACAAAGAGUGGCAAAGUGGCUGUGGCUAGACUACC [U9G C15A C18A G44A], for which the self-cleavage amounted to 0.04.

For GGCAGAGCGCAACACAGCGUGGCAAAGUAGCUGUGGCUAAACUGCC [U9G G29A G40A], the self-cleavage came to 0.02.

As for GGCAGAGCGCAACAAAGCGUGGCAACGUGGCUGUGGCUAGACUGCC [U9G C15A A26C], the self-cleavage is 0.23.

Turning to GGCAGAGCGCAACACAGCCUGGCAAAGUGGCUGUGGCUAGACUGUC [U9G G19C C45U], the self-cleavage is 0.04.

On to GGCAGAGCGCAACAUAGCGUGGCAAAGUGGCUGUGGUUAGACUGAC [U9G C15U C37U C45A], for which the self-cleavage was 0.12.

GGCAGAGCGCAACACACCGUGGCAAAGAGGCUGUGGCUAGACUGCC [U9G G17C U28A]: the self-cleavage came out at 0.14.

In the case of GGCAGAGCGCAACACAGCAAGGAAAAGAGGCUGUGGGUAGACUGCC [U9G G19A U20A C23A U28A C37G], the self-cleavage amounted to 0.01.

For the variant GGCAGAGCGCAACACAGCGUGGCAAAGUCACAGUGGCUAGACUGCC [U9G G29C G30A U32A], the self-cleavage turned out to be 0.01.

Regarding GGCAGAGCGCAACACAGCGUCGCAAAAUGGCUGUGGCUAGACUGCC [U9G G21C G27A], the self-cleavage was 0.05.

Take GGCAGAGCGCAACACACCGUGGCAAAGUGGCUGUGUCUAGGCUGUC [U9G G17C G36U A41G C45U]: the self-cleavage worked out at 0.01.

For the variant GGCAGAGCGCAACACACCGUGGCAAUGUGGCUGUGGCUAGACUGCC [U9G G17C A26U], the self-cleavage is 0.01.

Consider GGCAGAGCGCAACACAGCGUGGCAAAGUGGUUGUGCCUAGACUGCC [U9G C31U G36C], for which the self-cleavage worked out at 0.06.

With GGCAGAGCGCAACACAGUGUGCCAAAGUGGCUGUGGCUAGACUGCC [U9G C18U G22C], the self-cleavage was 0.04.

On to GGCAGAGCGCAACAAAGCGUGGCAAUGUGGCUGUGGUUAGACUUCC [U9G C15A A26U C37U G44U], for which the self-cleavage was determined as 0.09.

As for GGCAGAGCGCAACACAGCCUGGCAAAGUGGCUGUGGCUAUACUGCC [U9G G19C G40U], the self-cleavage was found to be 0.03.

Take GGCAGAGCGCAAUACAGCGCAGCAGAGUGGCUGUGGCUAGACUGCC [U9G C13U U20C G21A A25G]: the self-cleavage was 0.09.

As to GGCAGAGCGCAACACAGCGUAGCCAAGUGGCUGUGGCCAGACUGCC [U9G G21A A24C U38C], the self-cleavage stood at 0.12.

As to GGCAGAGCGCAAUAAAGGGUGGCAAAGUGGCUGUGGCUAGACUGCC [U9G C13U C15A C18G], the self-cleavage is 0.1.

With GGCAGAGCGCAACACACCGUGGCACAGUGGCUGUGGCUAGACUGCC [U9G G17C A25C], the self-cleavage was 0.06.

Turning to GGCAGAGCGCAACACAGCGUCGCAAAGUAGCUGAGGCUAGAGUGAC [U9G G21C G29A U34A C42G C45A], the self-cleavage stood at 0.04.

Take GGCAGAGCGCAACAUAGCGUGGCAAAGUGGCUGUAGCUAGACCGCC [U9G C15U G35A U43C]: the self-cleavage was 0.03.

Take GGCAGAGCGCAACACAGAGUGGCAAAGGUGCUGUGGCUAGACUGCC [U9G C18A U28G G29U]: the self-cleavage turned out to be 0.05.

GGCAGAGCGCAACACAGCGUGGGAAAGUGGGAGUGGCUAGACUGCC [U9G C23G C31G U32A]: the self-cleavage amounted to 0.01.

In the case of GGCAGAGCGCAACACAGCUUGGCAAAGUGGCUGUGGCUAGACUGGC [U9G G19U C45G], the self-cleavage was 0.05.

As to GGCAGAGCGCAACAGAGCGUGGCAAAGUUGCUGUGGCUAUACUGCC [U9G C15G G29U G40U], the self-cleavage worked out at 0.

Take GGCAGAGCGCAACACAGCGUGGCAAACUGGCUGUGGCUAGACUGGC [U9G G27C C45G]: the self-cleavage is 0.09.

Take GGCAGAGCGCAACACAACGUGGCAAAGUGGCUGGGGCUAGACUGCC [U9G G17A U34G]: the self-cleavage was 0.08.

On to GGCAGAGCGCAACACAGAGUGGCAAAGUGGCUUUGGCUCGACUGCC [U9G C18A G33U A39C], for which the self-cleavage was determined as 0.01.

GGCAGAGCGCAACACAGCGUGACAAAGUGGCUGUGGCUAGACUGGC [U9G G22A C45G]: the self-cleavage came out at 0.04.

Regarding GGCAGAGCGCAACAUAACGUAGAAAAGUGGCUGUGGCUUGACUGCC [U9G C15U G17A G21A C23A A39U], the self-cleavage was determined as 0.05.

With GGCAGAGCGCAACACAUCAUGGCAAAGUGGCUGUGGCUAGACUGCG [U9G G17U G19A C46G], the self-cleavage was 0.01.

As for GGCAGAGCGCAACACAGAGUGGCAAAGUGGCUUUGGCUAGACUGCC [U9G C18A G33U], the self-cleavage was 0.04.

With GGCAGAGCGCAACACAGCGUUGCAAGUUGGCUGUGGCUAGACUGCC [U9G G21U A26G G27U], the self-cleavage was found to be 0.06.

GGCAGAGCGCAACACAGCUAGGCAAAGUGGCUGUGGUUAGACUGCC [U9G G19U U20A C37U]: the self-cleavage was 0.

Regarding GGCAGAGCGCAACACAGCAUGGCAAAUUGGCUGUGGCUAGACUGCC [U9G G19A G27U], the self-cleavage came to 0.05.

As to GGCAGAGCGCAACACAGAGUGGCCAAGUGGCUGUGGCUAGGCUGCC [U9G C18A A24C A41G], the self-cleavage came to 0.04.

Turning to GGCAGAGCGCAACACAGUGUGGCACAGUGGCUGUGGCUAGACUUGC [U9G C18U A25C G44U C45G], the self-cleavage was determined as 0.05.

As to GGCAGAGCGCAACACAGCGUCGCACAGUGGCUGUGGCUAGACUGCC [U9G G21C A25C], the self-cleavage amounted to 0.05.

As for GGCAGAGCGCAACACAGCAUGCCAAAGUGGCUGUGGCUAGACUGCC [U9G G19A G22C], the self-cleavage is 0.05.

As to GGCAGAGCGCAACACAGCCUGGUAACGCGGCUGUGGCUAGACUGCC [U9G G19C C23U A26C U28C], the self-cleavage is 0.02.

For GGCAGAGCGCAACACAGCGUAGCAAAGUGGCUGUGAUUAGACUGCC [U9G G21A G36A C37U], the self-cleavage amounted to 0.02.

Regarding GGCAGAGCGCAACACAGAGUUGCAAAGUGGUUGUGGCUAGACUGCC [U9G C18A G21U C31U], the self-cleavage is 0.

Turning to GGCAGAGCGCAACACAGCGUGGUAAAGCGGCUGUGGCUAGACUGCC [U9G C23U U28C], the self-cleavage is 0.04.

As for GGCAGAGCGCAACACAGCGUGUCAAAUUGGGUGGGGCUAGACUACC [U9G G22U G27U C31G U34G G44A], the self-cleavage is 0.02.

As for GGCAGAGCGCAACACAGCGUGGCAAACUGGCUGUGACUAGACUGCC [U9G G27C G36A], the self-cleavage came out at 0.53.

Turning to GGCAGAGCGCAACACAGCGUGGCAAAGUAGCUGAGGCCAGACUGCC [U9G G29A U34A U38C], the self-cleavage was 0.02.

Turning to GGCAGAGCGCAACACAGCAUGGCAAUGUGACUGUGGCUAGACUGCC [U9G G19A A26U G30A], the self-cleavage was determined as 0.16.

As for GGCAGAGCGCAACACAGCGUGGCAAAGUCGCUCUGACUAGACUGCC [U9G G29C G33C G36A], the self-cleavage amounted to 0.01.

As for GGCAGAGCGCAACACAGCGUGGCAAAGUAGCUGUGGCUAGACUGCG [U9G G29A C46G], the self-cleavage was found to be 0.05.

For the variant GGCAGAGCGCAACACAGCGUGUCAAAUUGGCUGUGGCUAGACUGCC [U9G G22U G27U], the self-cleavage was determined as 0.05.

For the variant GGCAGAGCGCAACACAACGUGGCAAAGUGGCUGUGGAUAGACUGCC [U9G G17A C37A], the self-cleavage was 0.02.

As for GGCAGAGCGCAACAUAGCUUGGCAAAGUGGCUGUGGCAAGACUGCC [U9G C15U G19U U38A], the self-cleavage came out at 0.07.

In the case of GGCAGAGCGCAACACAGGGUGGCAAAGUGGCUGUGGCUAGAGUGCC [U9G C18G C42G], the self-cleavage stood at 0.01.

On to GGCAGAGCGCAACACAGCGUAUCAAAGUGGCUGUGGCACGACUGCC [U9G G21A G22U U38A A39C], for which the self-cleavage is 0.01.

As for GGCAGAGCGCAACACAGCGUUGCAAAGUGGCUGUGGUUAGACUGCC [U9G G21U C37U], the self-cleavage was found to be 0.24.
